Experimental data taken from PubChem BioAssay AID1240 (Sanford-Burnham Center for Chemical Genomics, 2008).
The whole screen tested about 50,000 compounds, of which about 800 (1.6%) showed an effect of 50% or more. The list shows a part of the results.

These molecules were tested against Bcl-2-like protein 10 (Homo sapiens) (UniProt Q9HD36) (assay: Phenotype converters, Bcl-B/TR3 peptide binding displacement, primary biochemical FP (AID 1240;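 also: 0% = Bcl-B with tracer peptide and DMSO and 100% = tracer peptide lacking Bcl-B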)). Details: GST-Bcl-B / FITC-TR3 peptide fluorescence polarization; stronger effect = higher value; compound at 3.75 mg/L.
Sequence of UniProt Q9HD36 (Q9HD36 whole entry, looked up): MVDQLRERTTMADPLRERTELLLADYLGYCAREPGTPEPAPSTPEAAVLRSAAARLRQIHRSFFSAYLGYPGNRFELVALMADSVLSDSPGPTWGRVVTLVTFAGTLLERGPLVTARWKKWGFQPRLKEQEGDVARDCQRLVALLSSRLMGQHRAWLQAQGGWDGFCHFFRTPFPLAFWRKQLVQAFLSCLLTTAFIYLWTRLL
In the case of `Cc1cc(C)n(C(=O)c2cc(-c3ccccc3)nc3ccccc23)n1`, the displacement is reported as 4.4%. Molecule `O=C(O)c1cc(S(=O)(=O)NCc2ccccc2)ccc1Br` has a displacement of 27.5%. In the case of `CC(C)(C)C1CCc2nc3ccccc3c(C(=O)O)c2C1` (centres undefined), the displacement is reported as -1.3%. `O=C1/C(=C/c2ccccc2[N+](=O)[O-])SC(=S)N1c1cccc(C(F)(F)F)c1` gave a displacement of 12.6%. Molecule `Cc1ccc2c(c1)c1c3n2CCN(C(=O)c2ccccc2Cl)C3CCC1` (centres undefined) has a displacement of 25%. With `Cc1ccc(C(=O)NCCCn2ccnc2)cc1[N+](=O)[O-]` the displacement was -4.7%. With `Cc1nc2ccccn2c1C(=O)N/N=C/c1c(O)ccc2ccccc12` the displacement was -14.3%. Work on `CC1(C)Cc2ccccc2/C(=C(\Cc2ccccc2)C(N)=O)N1` yielded a displacement of -6%. `CCOC(=O)c1sc(NC(=O)COc2ccc(CC)cc2)c(C(=O)OCC)c1C` gave a displacement of 3.3%. Molecule `COc1ccccc1N(CC(=O)Nc1ccccc1Cl)S(=O)(=O)c1ccccc1` has a displacement of 6.8%. `CCc1ccccc1NC(=O)CN(c1ccc(F)cc1)S(=O)(=O)c1ccccc1` showed a displacement of 1%. Work on `O=C(Nc1ccc(Nc2ccccc2)cc1)c1cccc([N+](=O)[O-])c1` yielded a displacement of 1.8%. `CCCCN1C(=O)/C(=C\c2ccc(Cl)cc2Cl)SC1=S` gave a displacement of 1.9%. `CCNC(=O)c1cc2c(C)nn(-c3ccccc3)c2s1` gave a displacement of 8.2%. `CCOC(=O)C1CCC(=O)C=C1N1CCOCC1` (centres undefined) gave a displacement of 4.9%. Molecule `Clc1cc2c(cc1CSc1nnnn1-c1ccccc1)OCO2` has a displacement of -1.9%. With `CCOC(=O)c1c(C)nc(C(Cl)(Cl)Cl)nc1N` the displacement was -10.3%. `COc1ccc(NC(=O)C2CC(=O)N(c3ccc(C)cc3)C2)cc1` (centres undefined) was tested, and the displacement was 10%. Molecule `COC(=O)c1cc2nc(-c3ccc(Br)cc3)cc(C(F)(F)F)n2n1` has a displacement of 5.7%. `O=C(O)CCCCCN1C(=O)C(=O)/C(=C(/O)c2ccccc2)C1c1ccc([N+](=O)[O-])cc1` (centres undefined) gave a displacement of -3.9%. For `Cn1c(COc2ccc3ccccc3c2)nc2ccccc21`, the displacement was -17.2%. Work on `O=[N+]([O-])c1ccc(Oc2ccccc2Br)cc1` yielded a displacement of 6.9%. With `CCOc1cc(/C=N\N2CCN(c3ccc(Cl)cc3)CC2)ccc1O` the displacement was 0.1%. With `O=C1CSC(c2ccc(Cl)c(Cl)c2)N1CCN1CCCCC1` (centres undefined) the displacement was 3%. `S=C(c1ccc(-c2ccccc2Cl)o1)N1CCOCC1` showed a displacement of -0.7%. Work on `Cc1ccc2oc(-c3ccc(NC(=O)c4cc5ccccc5o4)cc3)nc2c1` yielded a displacement of 20.8%. With `COc1ccc(Br)cc1/C=C/C(=O)c1ccc(C)cc1` the displacement was -3.8%. With `COc1ccc(-n2nc3ccc(NC(=O)/C=C\c4ccccc4)cc3n2)cc1` the displacement was -1.2%. In the case of `CC(=O)c1cccc(NC(=S)NCc2ccccc2)c1`, the displacement is reported as -10.3%. `Cc1cc(OCC(=O)Nc2cccnc2)ccc1Cl` showed a displacement of -5.8%. For `O=C(Oc1ccc(C(=S)N2CCOCC2)cc1)c1ccccc1Cl`, the displacement was 1.1%. For `CC1=NN(c2ccccc2)C(=O)/C1=C\c1c(O)n(-c2ccc(C)cc2)[nH]c1=O`, the displacement was 1.9%. Work on `CN1CCN(/N=C/c2ccc(Cl)cc2Cl)CC1` yielded a displacement of 1.4%. With `COC(=O)c1ccc(CN(c2cccc3cccnc23)S(=O)(=O)c2ccc(C)cc2)cc1` the displacement was 7.9%. For `O=C(NC(=S)Nc1ccc(NC(=O)c2ccco2)c(Cl)c1)c1ccc(Cl)cc1`, the displacement was 35.9%. In the case of `Cc1nc2ccccc2n1Cc1ccccc1Br`, the displacement is reported as 8%. `O=C(Cc1ccc([N+](=O)[O-])cc1)Nc1c(Cl)cccc1Cl` showed a displacement of -11.6%. With `CC(C)Oc1ccc(/C=C(/NC(=O)c2ccccc2)C(=O)Nc2ccccc2)cc1` the displacement was 3.5%. `O=C(CSc1nnc(-c2cccc(Cl)c2)n1-c1ccccc1)c1cccc([N+](=O)[O-])c1` showed a displacement of -13.2%. `Cc1ncc([N+](=O)[O-])n1CCOC(=O)Nc1ccc(Cl)c(Cl)c1` gave a displacement of 0.8%. `CCOC(=O)C1=C(O)/C(=C/c2ccc(N(CC)CC)cc2)SC1=Nc1cccc(Cl)c1` showed a displacement of -37.6%. `COc1ccc(/C=C2\SC(N3CCCC3)=NC2=O)c(OC)c1` was tested, and the displacement was -18.5%. `CCOC(=O)c1c(-n2c(C)cc(/C=C3\NC(=S)NC3=O)c2C)sc2c1CCCC2` showed a displacement of -36.7%. Molecule `O=C(NNC(=O)C1CCCCC1)c1ccccc1Cl` has a displacement of -12.1%. `O=C(/C=C/c1ccc(-c2ccccc2[N+](=O)[O-])o1)c1cc2ccccc2o1` was tested, and the displacement was 44.1%. Work on `O=S(=O)(O)c1ccc2c(c1)C(S(=O)(=O)O)CC(=N\O)/C2=N/O` (centres undefined) yielded a displacement of 1.4%. `CCOC(=O)Cn1c(C)nc2c(C(=O)OCC)sc(C)c2c1=O` was tested, and the displacement was 4.2%. With `C=Cc1ccc(COc2ccc3c4c(c(=O)oc3c2)CCC4)cc1` the displacement was 7.4%. `CCCC(=O)Nc1nc2ccc(Cl)cc2s1` showed a displacement of 6.5%. In the case of `CCOc1cc(OCC)cc(C(=O)Nc2ccc(Cl)c(NC(=O)c3ccco3)c2)c1`, the displacement is reported as 13%. Work on `Cc1nc2ccc(NC(=S)N3CCCC3)cc2nc1C` yielded a displacement of -3%. For `CCOC(=O)c1ccc(N2NC(=O)/C(=C/c3ccc4c(c3)OCO4)C2=O)cc1`, the displacement was -3%. Work on `COc1cc(OC)cc(C(=O)N2CCN(Cc3ccccc3C(F)(F)F)CC2)c1` yielded a displacement of -12.7%. For `CS(=O)(=O)N(CC(=O)Nc1ccccc1Cl)c1ccc(Cl)cc1`, the displacement was 11.7%. `CCP(=O)(CC)CCP(=O)(c1ccccc1)c1ccccc1` showed a displacement of -2.2%. Work on `O=C(c1cccc(Cl)c1)N1CCCc2ccccc21` yielded a displacement of 5.7%. For `O=c1sc2ccccc2c(N2CCOCC2)c1[N+](=O)[O-]`, the displacement was -19.3%. For `COc1cccc(-n2c(O)c(C=Nc3ccc4c(c3)OCO4)c(=O)[nH]c2=O)c1`, the displacement was 9.2%. `CCCn1c(/N=C/c2ccc3c(c2)OCO3)nc2ccccc21` was tested, and the displacement was 5.7%. `CC(=O)c1cccc(NC(=O)/C(=C\c2ccc(Br)cc2)NC(=O)c2ccc(C)cc2)c1` was tested, and the displacement was 2.4%. Work on `Cc1ccc(C(=O)Nc2ccc(NC(=O)c3ccccc3)cc2)cc1S(=O)(=O)N1CCOCC1` yielded a displacement of -9%. Work on `CCN(CC)CCN1C(=O)C(O)=C(C(=O)/C=C/c2ccccc2)C1c1ccc(F)cc1` (centres undefined) yielded a displacement of -2.7%. For `Cc1cccc(C(=O)Nc2sc3c(c2C(=O)N2CCN(C)CC2)CCC3)c1`, the displacement was 0.9%. Molecule `CCN(CC)c1ccc(C(=O)NCc2ccco2)cc1` has a displacement of -2.8%. `O=C(CCCOc1ccccc1)Nc1ccc(F)cc1` gave a displacement of 13.1%. `Cc1c(-n2c(O)c(C3=c4ccccc4=NC3=O)sc2=O)c(=O)n(-c2ccccc2)n1C` was tested, and the displacement was -7%. Molecule `CC(=O)N1c2ccccc2NC2=C(C(=O)CC(c3ccccc3)C2)C1c1cccs1` (centres undefined) has a displacement of -21.7%. Work on `CCC(Oc1ccc(Br)cc1)C(=O)NN` (centres undefined) yielded a displacement of -6%. Molecule `COc1ccc([N+](=O)[O-])cc1NS(=O)(=O)c1cc(Cl)ccc1Cl` has a displacement of 6.5%. `COc1cc(OC)cc(C(=O)Nc2cc(-c3nc4cc(Cl)ccc4o3)ccc2C)c1` was tested, and the displacement was 110%. Molecule `COCCOC(=O)c1c(C)oc2ccc(OCc3ccc([N+](=O)[O-])cc3)cc12` has a displacement of 11.7%. `O=C(/C=C/c1cccc([N+](=O)[O-])c1)Nc1cccc(-c2nc3ccccc3s2)c1` was tested, and the displacement was 17.4%. `O=C(CCCOc1ccc(Cl)cc1Cl)Nc1ccc(F)c(Cl)c1` gave a displacement of 3.1%. Work on `O=c1/c(=C/c2ccccc2OCCOc2ccc([N+](=O)[O-])cc2)sc2nc3ccccc3n12` yielded a displacement of 13.9%. `COC(=O)c1ccccc1N(Cc1ccc(Cl)cc1)S(=O)(=O)c1ccc(C)cc1` showed a displacement of 6.3%. `COc1ccccc1-c1c(C(F)(F)F)oc2cc(OC(=O)C(C)(C)C)ccc2c1=O` was tested, and the displacement was 14.4%. With `Cc1ccc(N2C(=O)CC(N3CCN(c4ccc([N+](=O)[O-])cc4)CC3)C2=O)c(C)c1` (centres undefined) the displacement was 1%. For `COc1ccccc1NC(=O)CN(c1ccc(C)cc1)S(=O)(=O)c1ccc(F)cc1`, the displacement was 9%. In the case of `Brc1ccccc1OCCCN1CCCC1`, the displacement is reported as 11.5%. For `CSc1ccc(/C=C2/SC(=O)N(CN3CCCCC3)C2=O)cc1`, the displacement was -1.4%. Work on `CC1CC(N(c2ccccc2)S(=O)(=O)c2ccc(Cl)cc2)c2ccccc2N1` (centres undefined) yielded a displacement of 0.7%. `c1ccc2oc(SCCCCCSc3nc4ccccc4o3)nc2c1` showed a displacement of 3.6%. `O=C1/C(=C\c2ccc(-c3cccc(C(F)(F)F)c3)o2)SC(=S)N1C1CCCCC1` showed a displacement of 23.8%. Molecule `COc1ccccc1CC(=O)Nc1cccc([N+](=O)[O-])c1` has a displacement of -8.5%. Molecule `COc1ccc(OCC(=O)Nc2cccc([N+](=O)[O-])c2)cc1` has a displacement of -7.9%. `Cc1cc(C)nc(NS(=O)(=O)c2ccc(NC(=S)NC(=O)c3ccc(F)c(F)c3)cc2)n1` was tested, and the displacement was -5%. Work on `CC(C)(C)NC(=O)c1cc2ccccc2o1` yielded a displacement of 8.5%. For `O=C(/C=C/c1ccc(-c2ccccc2[N+](=O)[O-])o1)Nc1cccnc1`, the displacement was 73.1%. `CCCCOc1ccc(-c2cc(C(=O)O)c3ccccc3n2)cc1` showed a displacement of 9.8%. In the case of `CCC1(C)Cc2ccccc2/C(=C/C(=O)NC)N1` (centres undefined), the displacement is reported as 18.6%. Work on `COc1nccc(Nc2ccccc2)c1C#N` yielded a displacement of -0.1%. `OCCNC(Nc1ccc(Cl)cc1)=C(c1ccccc1)c1ccccc1` showed a displacement of -9%. In the case of `O=C(/C=C\c1ccco1)Oc1ccc(/C=N\NC(=O)c2cncc(Br)c2)cc1`, the displacement is reported as 5.9%. In the case of `COc1ccc(-c2cc(C(=O)Nc3ccccc3Cl)c3ccccc3n2)cc1`, the displacement is reported as 12.2%. `c1ccc(CN2CCC(N3CCNCC3)CC2)cc1` showed a displacement of -0.8%. `O=S(=O)(c1ccc(Br)cc1)N1CCN(c2ccccc2Cl)CC1` was tested, and the displacement was 5.4%. `O=C(Nc1ccccc1C(=O)N1CCOCC1)c1ccncc1` was tested, and the displacement was -4.5%. Molecule `Oc1ccc2ccccc2c1C=Nc1ccc2oc(-c3ccccc3Br)nc2c1` has a displacement of 120%. Molecule `O=C(O)/C(=C\c1cccc(Br)c1)NC(=O)c1ccccc1` has a displacement of 5.7%. Work on `CCOC(=O)CN1C(=O)C(O)(CC(=O)c2ccco2)c2ccccc21` (centres undefined) yielded a displacement of -4.5%. `Cc1nn(Cc2ccccc2)c(=O)n(Cc2ccccc2)c1=O` showed a displacement of -5%. For `Cc1ccccc1NC(=S)N1CCN(c2cccc(Cl)c2)CC1`, the displacement was -6.7%. Molecule `COc1ccc(C(=O)NCC2(c3ccccc3)CCCC2)c(OC)c1` has a displacement of -3.5%. With `Cc1ccc(C2CC(C(F)(F)F)n3ncc(C(=O)N(Cc4ccccc4)Cc4ccccc4)c3N2)cc1` (centres undefined) the displacement was 3.4%. In the case of `CC(C)OC(=O)c1c(NC(=O)/C=C/C(=O)O)sc2c1CCCCC2`, the displacement is reported as -7.2%. `Cn1cnnc1SCC(=O)c1ccc(-c2ccccc2)cc1` showed a displacement of 0%. Work on `COC(=O)c1ccc(/C=C/C(=O)c2ccc(Cl)cc2)cc1` yielded a displacement of 4.6%. `COc1ccccc1CNS(=O)(=O)c1ccc2ccccc2c1` showed a displacement of -4%. `COc1ccc(Cc2noc(-c3ccc(Cl)cc3)n2)cc1` was tested, and the displacement was -7.5%.
